# Test results published in the supplement of paper PMC8728848.
# The list shows a part of the results.
# B1: GSL-I-B4 (Griffonia simplicifolia) (protein)
# chain: NFWSDVEDSIIFQGDANTTAGTLQLCKTNQYGTPLQWSAGRALYSDPVQLWDNKTESVASFYTEFTFFLKITGNGPADGLAFFLAPPDSDVKDAGEYLGLFNKSTATQPSKNQVVAVEFDTWTNPNFPEPSYRHIGINVNSIVSVATKRWEDSDIFSGKIATARISYDGSAEILTVVLSYPDGSDYILSHSVDMRQNLPESVRVGISASTGNNQFLTVYILSWRFSSNLQSTSVKAAMEPEITRTVV
# How the values were obtained:
# Assay in all cases: glycan array binding signal (z-score within array); higher = stronger binding
# Conditions in all cases: glycan notation: IUPAC condensed, linker removed
# [1] = molecular target: Gal(b1-4)GlcNAc(b1-6)GalNAc
# Outline: (§1)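 Arrays were curated from the Consortium for Functional Glycomics database, 3228 in total, and kept only where the protein sequence was available. Binding is expressed as a within-array Z-score. This score was averaged across arrays of the same protein sequence at different concentrations or buffers and across linkers, and negative values can be read as non-binding.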
# [2] = molecular target: Gal(b1-4)GlcNAc(b1-6)[Gal(b1-3)]GalNAc
# Outline: as §1
# [3] = molecular target: Gal(b1-4)GlcNAc(b1-6)[Gal(b1-4)GlcNAc(b1-3)]GalNAc
# Outline: as §1
# Gal(b1-4)GlcNAc6P = molecular target: Gal(b1-4)GlcNAc6P
# Outline: as §1
# Gal(b1-6)Gal = molecular target: Gal(b1-6)Gal
# Outline: as §1
# Gal3S(b1-3)GalNAc = molecular target: Gal3S(b1-3)GalNAc
# Outline: as §1
# Gal3S(b1-3)GlcNAc = molecular target: Gal3S(b1-3)GlcNAc
# Outline: as §1
# [4] = molecular target: Gal3S(b1-3)[Fuc(a1-4)]GlcNAc
# Outline: as §1
# Gal3S(b1-4)Glc = molecular target: Gal3S(b1-4)Glc
# Outline: as §1
# Gal3S(b1-4)Glc6S = molecular target: Gal3S(b1-4)Glc6S
# Outline: as §1
# Gal3S(b1-4)GlcNAc = molecular target: Gal3S(b1-4)GlcNAc
# Outline: as §1
# [5] = molecular target: Gal3S(b1-4)[Fuc(a1-3)]Glc6S
# Outline: as §1
# [6] = molecular target: Gal3S(b1-4)[Fuc(a1-3)]GlcNAc
# Outline: as §1
# [7] = molecular target: Gal3S(b1-4)[Fuc(a1-3)]GlcNAc6S
# Outline: as §1
# Gal3S4S(b1-4)GlcNAc = molecular target: Gal3S4S(b1-4)GlcNAc
# Outline: as §1
# Gal3S6S(b1-4)GlcNAc = molecular target: Gal3S6S(b1-4)GlcNAc
# Outline: as §1
# Gal3S6S(b1-4)GlcNAc6S = molecular target: Gal3S6S(b1-4)GlcNAc6S
# Outline: as §1
# Gal4S(b1-4)GlcNAc = molecular target: Gal4S(b1-4)GlcNAc
# Outline: as §1
# Gal4S6S(b1-4)GlcNAc = molecular target: Gal4S6S(b1-4)GlcNAc
# Outline: as §1
# Gal6P(b1-4)GlcNAc = molecular target: Gal6P(b1-4)GlcNAc
# Outline: as §1
# Gal6S(b1-3)GlcNAc = molecular target: Gal6S(b1-3)GlcNAc
# Outline: as §1
# Gal6S(b1-3)GlcNAc6S = molecular target: Gal6S(b1-3)GlcNAc6S
# Outline: as §1
# Gal6S(b1-4)Glc = molecular target: Gal6S(b1-4)Glc
# Outline: as §1
# Gal6S(b1-4)Glc6S = molecular target: Gal6S(b1-4)Glc6S
# Outline: as §1
# Gal6S(b1-4)GlcNAc = molecular target: Gal6S(b1-4)GlcNAc
# Outline: as §1
# Gal6S(b1-4)GlcNAc6S = molecular target: Gal6S(b1-4)GlcNAc6S
# Outline: as §1
# GalNAc(a1-3)Gal = molecular target: GalNAc(a1-3)Gal
# Outline: as §1
# GalNAc(a1-3)GalNAc = molecular target: GalNAc(a1-3)GalNAc
# Outline: as §1
# [8] = molecular target: GalNAc(a1-3)GalNAc(a1-3)Gal(a1-4)Gal(b1-4)GlcNAc
# Outline: as §1
# [9] = molecular target: GalNAc(a1-3)GalNAc(b1-3)Gal(a1-4)Gal(b1-4)Glc
# Outline: as §1
# GalNAc(b1-3)Gal = molecular target: GalNAc(b1-3)Gal
# Outline: as §1
# [10] = molecular target: GalNAc(b1-3)Gal(a1-4)Gal(b1-4)GlcNAc
# Outline: as §1
# [11] = molecular target: GalNAc(b1-3)Gal(a1-4)Gal(b1-4)GlcNAc(b1-3)Gal(b1-4)Glc
# Outline: as §1
# [12] = molecular target: GalNAc(b1-3)Gal(a1-6)Gal(b1-4)Glc
# Outline: as §1
# GalNAc(b1-3)GalNAc = molecular target: GalNAc(b1-3)GalNAc
# Outline: as §1
# GalNAc(b1-3)GlcNAc = molecular target: GalNAc(b1-3)GlcNAc
# Outline: as §1
# GalNAc(b1-4)Gal(b1-4)Glc = molecular target: GalNAc(b1-4)Gal(b1-4)Glc
# Outline: as §1
# GalNAc(b1-4)GlcNAc = molecular target: GalNAc(b1-4)GlcNAc
# Outline: as §1
binder,measurement,setting,value
B1,glycan array binding signal (z-score),[1],-0.164
same,glycan array binding signal (z-score),[2],-0.174
same,glycan array binding signal (z-score),[3],-0.187
same,glycan array binding signal (z-score),Gal(b1-4)GlcNAc6P,-0.167
same,glycan array binding signal (z-score),Gal(b1-6)Gal,-0.149
same,glycan array binding signal (z-score),Gal3S(b1-3)GalNAc,-0.237
same,glycan array binding signal (z-score),Gal3S(b1-3)GlcNAc,-0.233
same,glycan array binding signal (z-score),[4],-0.19
same,glycan array binding signal (z-score),Gal3S(b1-4)Glc,-0.151
same,glycan array binding signal (z-score),Gal3S(b1-4)Glc6S,-0.193
same,glycan array binding signal (z-score),Gal3S(b1-4)GlcNAc,-0.174
same,glycan array binding signal (z-score),[5],-0.009
same,glycan array binding signal (z-score),[6],-0.251
same,glycan array binding signal (z-score),[7],-0.167
same,glycan array binding signal (z-score),Gal3S4S(b1-4)GlcNAc,-0.184
same,glycan array binding signal (z-score),Gal3S6S(b1-4)GlcNAc,-0.208
same,glycan array binding signal (z-score),Gal3S6S(b1-4)GlcNAc6S,-0.21
same,glycan array binding signal (z-score),Gal4S(b1-4)GlcNAc,-0.22
same,glycan array binding signal (z-score),Gal4S6S(b1-4)GlcNAc,-0.177
same,glycan array binding signal (z-score),Gal6P(b1-4)GlcNAc,-0.258
same,glycan array binding signal (z-score),Gal6S(b1-3)GlcNAc,-0.267
same,glycan array binding signal (z-score),Gal6S(b1-3)GlcNAc6S,-0.277
same,glycan array binding signal (z-score),Gal6S(b1-4)Glc,-0.195
same,glycan array binding signal (z-score),Gal6S(b1-4)Glc6S,-0.174
same,glycan array binding signal (z-score),Gal6S(b1-4)GlcNAc,-0.19
same,glycan array binding signal (z-score),Gal6S(b1-4)GlcNAc6S,-0.191
same,glycan array binding signal (z-score),GalNAc(a1-3)Gal,-0.18
same,glycan array binding signal (z-score),GalNAc(a1-3)GalNAc,-0.263
same,glycan array binding signal (z-score),[8],-0.17
same,glycan array binding signal (z-score),[9],-0.156
same,glycan array binding signal (z-score),GalNAc(b1-3)Gal,-0.112
same,glycan array binding signal (z-score),[10],-0.171
same,glycan array binding signal (z-score),[11],-0.162
same,glycan array binding signal (z-score),[12],-0.165
same,glycan array binding signal (z-score),GalNAc(b1-3)GalNAc,-0.167
same,glycan array binding signal (z-score),GalNAc(b1-3)GlcNAc,-0.205
same,glycan array binding signal (z-score),GalNAc(b1-4)Gal(b1-4)Glc,-0.154
same,glycan array binding signal (z-score),GalNAc(b1-4)GlcNAc,-0.152
